Reference: US5486596A, “Analogues of 8-D-homoarginine vasopressin” (Ceskoslovenska akademie ved, priority 1989, dated 1996)
Like-named read-outs stand apart in the source and are kept apart here. Part of at least one peptide drawing is inferred or uncertain, most often the ends. Bridge positions count the residues as written; N and C are the ends. Square brackets hold non-standard residues; d marks the D form. Peptide text beside a SMILES is read from it. dPhe(4-Et) = CCc1ccc(C[C@@H](N)C(=O)O)cc1; dPhe(4-Me) = Cc1ccc(C[C@@H](N)C(=O)O)cc1; Phe(4-Et) = CCc1ccc(C[C@H](N)C(=O)O)cc1; Phe(4-Me) = Cc1ccc(C[C@H](N)C(=O)O)cc1; d(hArg) = N=C(N)NCCCC[C@@H](N)C(=O)O; Mpa = O=C(O)CCS

What was measured:
[1] = system: FVIII; assay: FVIII activity in squirrel monkeys (blood coagulation); type: in vivo; details: saline control = 100% (basal value)
Protocol: (§1) Compounds of the present invention ware evaluated for their ability to affect blood coagulation and fibrinolytic properties. The compounds were compared with [8-D-argenine]deamino vasopressin in squirrel monkeys. The findings of dissociated blood coagulation/fibrinolytic properties and the inhibitory properties are new and surprising properties for the series of vasopressin derived peptides.

[2] = system: despinalized male rats
[3] = system: tPA; assay: tPA activity in squirrel monkeys (fibrinolytic properties); type: in vivo; details: saline control = 100% (basal value)
Protocol: as §1

[4] = system: rats; assay: antidiuretic activity according to Burn, dDAVP as standard; type: in vivo; details: rat, relative to the standard dDAVP
Protocol: The biological activity of the peptides was tested on rats, namely: the uterotonic activity (agonistic and antagonistic) according to the Holton's method (Holtdon, J.: Brit. J. Pharmacol., 3,328, 1960) modified by Munsick (Endocrinology, 66, 451, 1960), the inhibitory activity being expressed as pA2 (Eggen et al.: J. Gen. Physiol., 56, 250, 1970), the pressoric activity was determined on despinalized male rats according to Krejci et al. (Brit. J. Pharm. Chemother., 30, 497, 1967) and the antidiuretic activity according to Burn (Burn et al.: Biol. Stand. Oxford Univ. Press, London, 1950) with [deaminol, D-arginine^8 ]vasopressin (dDAVP) used as the standard.

SMILES	FVIII/% [1] [%]	Pressoric activity ([2]; unit not given)	tPA/% [3] [%]	Antidiuretic activity [4] [% dDAVP]	Pressoric activity [2] [IU/mg]
COc1ccc(C[C@@H]2NC(=O)CCSSC[C@@H](C(=O)N3CCC[C@H]3C(=O)N[C@H](CCCCNC(=N)N)C(=O)NCC(N)=O)NC(=O)[C@H](CC(N)=O)NC(=O)[C@H](CCC(N)=O)NC(=O)[C@H](Cc3ccccc3)NC2=O)cc1 [VI, [1-mercaptopropionic acid, 2-O-methyltyrosine 8-D-homoarginine]vasopressin]	98.5	0	116.5		
Cc1ccc(C[C@@H]2NC(=O)CCSSC[C@@H](C(=O)N3CCC[C@H]3C(=O)N[C@H](CCCCNC(=N)N)C(=O)NCC(N)=O)NC(=O)[C@H](CC(N)=O)NC(=O)[C@H](CCC(N)=O)NC(=O)[C@H](Cc3ccccc3)NC2=O)cc1 [IX, [Mpr^1, L-p-MePhe^2, D--Har^8] vasopressin] ([Mpa][Phe(4-Me)]FQNCP[d(hArg)]G-NH2; disulfide 1-6)	155		67	< 1	
CCc1ccc(C[C@H]2NC(=O)CCSSC[C@@H](C(=O)N3CCC[C@H]3C(=O)N[C@H](CCCCNC(=N)N)C(=O)NCC(N)=O)NC(=O)[C@H](CC(N)=O)NC(=O)[C@H](CCC(N)=O)NC(=O)[C@H](Cc3ccccc3)NC2=O)cc1 [VIII, [Mpr^1, D-p-EtPhe^2, D--Har^8] vasopressin] ([Mpa][dPhe(4-Et)]FQNCP[d(hArg)]G-NH2; disulfide 1-6)				< 1	
CCc1ccc(C[C@@H]2NC(=O)CCSSC[C@@H](C(=O)N3CCC[C@H]3C(=O)N[C@H](CCCCNC(=N)N)C(=O)NCC(N)=O)NC(=O)[C@H](CC(N)=O)NC(=O)[C@H](CCC(N)=O)NC(=O)[C@H](Cc3ccccc3)NC2=O)cc1 [VII, [Mpr^1, L-p-EtPhe^2, D--Har^8] vasopressin] ([Mpa][Phe(4-Et)]FQNCP[d(hArg)]G-NH2; disulfide 1-6)	111.5		79.4	< 1	
COc1ccc(C[C@@H]2NC(=O)[C@@H](N)CSSC[C@@H](C(=O)N3CCC[C@H]3C(=O)N[C@H](CCCCNC(=N)N)C(=O)NCC(N)=O)NC(=O)[C@H](CC(N)=O)NC(=O)[C@H](CCC(N)=O)NC(=O)[C@H](Cc3ccccc3)NC2=O)cc1 [I, [2-O-methyltyrosine, 8-D-homoarginine]vasopressin]					0.04
Cc1ccc(C[C@H]2NC(=O)CCSSC[C@@H](C(=O)N3CCC[C@H]3C(=O)N[C@H](CCCCNC(=N)N)C(=O)NCC(N)=O)NC(=O)[C@H](CC(N)=O)NC(=O)[C@H](CCC(N)=O)NC(=O)[C@H](Cc3ccccc3)NC2=O)cc1 [X, [Mpr^1, D-p-MePhe^2, D--Har^8] vasopressin] ([Mpa][dPhe(4-Me)]FQNCP[d(hArg)]G-NH2; disulfide 1-6)	112	0	81	< 1	
